# Measured values as given in the supplement of paper PMC8728848.
# Some of the results follow.
# B1: Epa1-NP-mutant-E227A (Candida glabrata), Q6VBJ0 (protein)
# chain: MILNPALFLNKCVCIYTTLILLLLTNGGYATSSNDISLASKDPTTFPLGCSPDITTPKKGLSMELYSYDFRKKGSYPCWDAAYLDPNYPRTGYKSHRLLAKVDGVTGNINFYYHATKGCTPQLGHLPASYNYPKPLTMTNFTMLLYGYFRPKVTGFHTFTISADDLLFVNFGAGNAFDCCRRDSSADHFGNYQAYAIWGSKTAKDELTVHLDAGVYYPIRLFYNNRAYDGALSFTFKTESNENTVSDFSEYFFSLDDTEEGCPGLISYDSSCASVKTSKIIGIDYHTETPNENLVPITKTIYHLGIPCTGTTTTPLCGSGFYDPLANKCVTINTSSTSSVTKTTSHTTSKEVSFHSSISSQKTLIPKSIPSPYGPIKSQSIPTEMETSSEISSSEYAFSDVISTPSHSPYTKKHSSLNSSSYTSTVIHSLTSYSISQGIFSTSLSEQNITSKSSTDKFSTATSMSNNITQSSIIISQFSTNNENYTTTSMHTSSDKISTETLNNSISTTTSILFSNSSTILKNNTTIISSDKDTHYHPVNPTIVCSTNKTEIICASITQPSISNSNNHWSSSVLKFNSTTVRSTLPSSAGSNETSINVPFSSSTESNTSTSSTSTSNSKMVRSTLPSSAGSNETSISVPFSSSTESNTSTSSTSTSNSKMVRSTLPSSAGSNETSINVPFSSSTESNTSTSSTSTSNSKTVRSTPFSSAGIIMTSLSQRNNKSASSYASSNSKCYNTADSCRKVHSTPSYLLTSSYTSEGVDYDCSLVSTKLKINDTNCVNNKHTTKSCLKTSVTTTIPTLEIKTARKSSSNTIGLHSYPTSSPNKSISSAPIIGYISSFKTIKTASPSYQTSDLTTITTITSLNNPGSTAVENTHESNDKSRKTSSNDISSKHSVIKETKDAVESSNKSHQTNTLKCSSIIIASSSHNSYESLGGTTLTLTLSKVYSPQNNDTLPFLEISEVNPSRTVLPESSKMMQYLTSTEERNKTARNTIATNIVSISTFHFEGEGNAIRMGYTQLLLMLIGIIVMNIGT
# Assays:
# Assay in all cases: glycan array binding signal (z-score within array); higher = stronger binding
# Settings in all cases: glycan notation: IUPAC condensed, linker removed; mutation: E227A
# [1] = target: Gal3S(b1-3)[Fuc(a1-4)]GlcNAc
# Outline: (§1)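 Glycan array data came from 3228 arrays in the Consortium for Functional Glycomics database, and only arrays with an available protein sequence were kept. Glycan names were put into IUPAC-condensed notation, and columns mapping to the same glycan were averaged. The binding signal is a within-array Z-score, averaged across arrays of one protein sequence run at different concentrations or buffers and across linkers. A negative Z-score can be read as non-binding.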
# Gal3S(b1-4)Glc = target: Gal3S(b1-4)Glc
# Outline: as §1
# Gal3S(b1-4)Glc6S = target: Gal3S(b1-4)Glc6S
# Outline: as §1
# Gal3S(b1-4)GlcNAc = target: Gal3S(b1-4)GlcNAc
# Outline: as §1
# [2] = target: Gal3S(b1-4)[Fuc(a1-3)]Glc6S
# Outline: as §1
# [3] = target: Gal3S(b1-4)[Fuc(a1-3)]GlcNAc
# Outline: as §1
# [4] = target: Gal3S(b1-4)[Fuc(a1-3)]GlcNAc6S
# Outline: as §1
# Gal3S4S(b1-4)GlcNAc = target: Gal3S4S(b1-4)GlcNAc
# Outline: as §1
# Gal3S6S(b1-4)GlcNAc = target: Gal3S6S(b1-4)GlcNAc
# Outline: as §1
# Gal3S6S(b1-4)GlcNAc6S = target: Gal3S6S(b1-4)GlcNAc6S
# Outline: as §1
# Gal4S(b1-4)GlcNAc = target: Gal4S(b1-4)GlcNAc
# Outline: as §1
# Gal4S6S(b1-4)GlcNAc = target: Gal4S6S(b1-4)GlcNAc
# Outline: as §1
# Gal6P(b1-4)GlcNAc = target: Gal6P(b1-4)GlcNAc
# Outline: as §1
# Gal6S(b1-3)GlcNAc = target: Gal6S(b1-3)GlcNAc
# Outline: as §1
# Gal6S(b1-3)GlcNAc6S = target: Gal6S(b1-3)GlcNAc6S
# Outline: as §1
# Gal6S(b1-4)Glc = target: Gal6S(b1-4)Glc
# Outline: as §1
# Gal6S(b1-4)Glc6S = target: Gal6S(b1-4)Glc6S
# Outline: as §1
# Gal6S(b1-4)GlcNAc = target: Gal6S(b1-4)GlcNAc
# Outline: as §1
# Gal6S(b1-4)GlcNAc6S = target: Gal6S(b1-4)GlcNAc6S
# Outline: as §1
# GalNAc(a1-3)Gal = target: GalNAc(a1-3)Gal
# Outline: as §1
# GalNAc(a1-3)GalNAc = target: GalNAc(a1-3)GalNAc
# Outline: as §1
# [5] = target: GalNAc(a1-3)GalNAc(b1-3)Gal(a1-4)Gal(b1-4)Glc
# Outline: as §1
# [6] = target: GalNAc(a1-3)GalNAc(b1-3)Gal(a1-4)Gal(b1-4)GlcNAc
# Outline: as §1
# GalNAc(b1-3)Gal = target: GalNAc(b1-3)Gal
# Outline: as §1
# [7] = target: GalNAc(b1-3)Gal(a1-4)Gal(b1-4)GlcNAc
# Outline: as §1
# [8] = target: GalNAc(b1-3)Gal(a1-4)Gal(b1-4)GlcNAc(b1-3)Gal(b1-4)Glc
# Outline: as §1
# [9] = target: GalNAc(b1-3)Gal(a1-6)Gal(b1-4)Glc
# Outline: as §1
# GalNAc(b1-3)GalNAc = target: GalNAc(b1-3)GalNAc
# Outline: as §1
# GalNAc(b1-3)GlcNAc = target: GalNAc(b1-3)GlcNAc
# Outline: as §1
# GalNAc(b1-4)Gal(b1-4)Glc = target: GalNAc(b1-4)Gal(b1-4)Glc
# Outline: as §1
binder,measurement,setting,value
B1,glycan array binding signal (z-score),[1],-0.175
same,glycan array binding signal (z-score),Gal3S(b1-4)Glc,-0.193
same,glycan array binding signal (z-score),Gal3S(b1-4)Glc6S,-0.185
same,glycan array binding signal (z-score),Gal3S(b1-4)GlcNAc,-0.192
same,glycan array binding signal (z-score),[2],-0.143
same,glycan array binding signal (z-score),[3],-0.189
same,glycan array binding signal (z-score),[4],-0.203
same,glycan array binding signal (z-score),Gal3S4S(b1-4)GlcNAc,-0.21
same,glycan array binding signal (z-score),Gal3S6S(b1-4)GlcNAc,-0.185
same,glycan array binding signal (z-score),Gal3S6S(b1-4)GlcNAc6S,0.437
same,glycan array binding signal (z-score),Gal4S(b1-4)GlcNAc,-0.203
same,glycan array binding signal (z-score),Gal4S6S(b1-4)GlcNAc,-0.201
same,glycan array binding signal (z-score),Gal6P(b1-4)GlcNAc,0.568
same,glycan array binding signal (z-score),Gal6S(b1-3)GlcNAc,0.311
same,glycan array binding signal (z-score),Gal6S(b1-3)GlcNAc6S,1.88
same,glycan array binding signal (z-score),Gal6S(b1-4)Glc,4.56
same,glycan array binding signal (z-score),Gal6S(b1-4)Glc6S,6.39
same,glycan array binding signal (z-score),Gal6S(b1-4)GlcNAc,5.93
same,glycan array binding signal (z-score),Gal6S(b1-4)GlcNAc6S,15.2
same,glycan array binding signal (z-score),GalNAc(a1-3)Gal,-0.179
same,glycan array binding signal (z-score),GalNAc(a1-3)GalNAc,-0.184
same,glycan array binding signal (z-score),[5],-0.225
same,glycan array binding signal (z-score),[6],-0.186
same,glycan array binding signal (z-score),GalNAc(b1-3)Gal,-0.19
same,glycan array binding signal (z-score),[7],-0.162
same,glycan array binding signal (z-score),[8],-0.19
same,glycan array binding signal (z-score),[9],-0.218
same,glycan array binding signal (z-score),GalNAc(b1-3)GalNAc,-0.212
same,glycan array binding signal (z-score),GalNAc(b1-3)GlcNAc,-0.195
same,glycan array binding signal (z-score),GalNAc(b1-4)Gal(b1-4)Glc,-0.159
